From PubChem BioAssay AID1030 (National Center for Advancing Translational Sciences (NCATS), 2008)
In all, about 220,000 compounds went through this assay and about 16,000 (7.3%) were called active. This list was built around the results that the source calls inconclusive (neither active nor inactive); the mix of calls is not that of the screen. Calls come from the whole dose curve; as a rule, active = well fitted inhibition curve with a large enough effect (not every such curve was filed as active); inconclusive = small, poorly fitted or top-dose-only effect, or another doubt; inactive = no such curve, though single readings can be large or run the other way. No potency is given beside an inconclusive call; the fits are too rough.

biological target: Aldehyde dehydrogenase 1A1 (Homo sapiens) (UniProt P00352); assay: qHTS Assay for Inhibitors of Aldehyde Dehydrogenase 1 (ALDH1A1); conditions: Purified ALDH1A1, NADH fluorescence, propionaldehyde substrate; series mostly up to 75.3 µM; activity, negative = inhibition: at the top concentration;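 for activity, negative = inhibition: plate controls were no enzyme wells and a reference inhibitor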
Potency is the fitted concentration of half-maximal effect; tags give direction and shape of the fitted curve.

UniProt P00352, sequence (P00352 whole entry, looked up): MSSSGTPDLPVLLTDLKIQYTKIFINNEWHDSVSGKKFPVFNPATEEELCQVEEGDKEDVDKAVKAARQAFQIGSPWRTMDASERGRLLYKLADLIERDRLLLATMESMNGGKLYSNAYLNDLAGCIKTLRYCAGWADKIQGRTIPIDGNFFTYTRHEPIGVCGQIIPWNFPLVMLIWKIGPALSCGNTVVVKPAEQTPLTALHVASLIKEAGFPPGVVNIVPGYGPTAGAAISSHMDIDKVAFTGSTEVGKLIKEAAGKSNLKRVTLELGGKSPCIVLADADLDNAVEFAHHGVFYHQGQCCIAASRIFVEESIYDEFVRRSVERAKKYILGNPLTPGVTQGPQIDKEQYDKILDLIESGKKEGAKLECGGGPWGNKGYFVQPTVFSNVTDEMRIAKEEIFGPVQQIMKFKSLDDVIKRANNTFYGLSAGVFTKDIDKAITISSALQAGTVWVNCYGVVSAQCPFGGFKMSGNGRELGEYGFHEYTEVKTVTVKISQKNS

Structure (SMILES)	Potency	activity, negative = inhibition
Cn1c(=O)[nH]c(=O)c2c1nc(Br)n2Cc1ccccc1F	inconclusive [inhibitor, partial curve]	–
O=C(c1ccc(-c2cccc(Cl)c2)o1)N1CCN(c2ccc([N+](=O)[O-])cc2)CC1	inconclusive [inhibitor, partial curve]	–
Cc1nc2cncnc2n(-c2ccccc2)c1=O	inconclusive [inhibitor, single point]	–
O=C(/C=C/c1ccc(F)cc1)c1ccccc1Br	inconclusive [inhibitor, single point]	–
CCn1c(SCC(=O)c2ccc3c(c2)OCCO3)nnc1C(C)C	inconclusive [inhibitor, single point]	–
Cc1cc(C)c(C)c(OCC(=O)NCC2CCCO2)c1 (configuration not stated)	–	inactive: -2.32%
O=C(NCCc1nc2ccccc2[nH]1)/C(=C/c1ccco1)NC(=O)c1ccc(Br)o1	–	inactive: 7.92%
CC(C)(C=O)C1=CC(=O)c2ccccc2C1=O	active: 1.58 µM	–
Cc1cc(C)n2nc(C(=O)NC3CCCc4ccccc43)nc2n1 (configuration not stated)	–	inactive: 2.03%
O=C(CN1CCc2ccccc21)NCc1ccc2c(c1)OCO2	inconclusive [inhibitor, partial curve]	–
CSC1=N/C(=C\c2ccccc2F)C(=O)S1	–	inactive: -14.8%
Cc1[nH][nH]c(=O)c1C(c1c(C)[nH][nH]c1=O)c1cn(Cc2ccc(F)cc2)c2ccccc12	active: 1.41 µM	–
COc1ccc(CN2CCCC(CNC(=O)c3ccc(F)cc3)C2)c(F)c1 (configuration not stated)	inconclusive [inhibitor, partial curve]	–
Cc1cc(=O)oc2cc(OC(C)C(=O)O)c(Cl)cc12 (configuration not stated)	inconclusive [inhibitor, partial curve]	–
Cc1ccc2cc(C#N)c(N3CCCN(S(=O)(=O)c4ccccc4)CC3)nc2c1	inconclusive [inhibitor, single point]	–
Oc1ccc(-c2n[nH]c(=S)n2-c2ccc3c(c2)OCCO3)c(O)c1	inconclusive [inhibitor, partial curve]	–
OC(CN1C2=NCCCN2c2ccccc21)c1ccc2c(c1)OCO2 (configuration not stated)	inconclusive [inhibitor, single point]	–
O=C(NCCc1nnc2ccc(NCc3ccc(Cl)cc3)nn12)c1ccccc1	–	inactive: 11.3%
Cn1c2ccccc2n2c(=O)c(Cl)c(-c3ccccc3)c(C#N)c12	inconclusive [inhibitor, single point]	–
O=C(NCc1ccco1)c1ccc(CNc2c(N3CCCCC3)c(=O)c2=O)cc1	–	inactive: 8.49%
COc1ccccc1NC(=S)N1CCN(c2nc(-c3ccccc3)cs2)CC1	inconclusive [inhibitor, single point]	–
O=C(CSc1nnc(SCc2ccccc2Cl)s1)N/N=C/c1c[nH]c2ccccc12	–	inactive: -6.26%
Cc1nc(CN(C)C(=O)c2cc(COc3ccc4ncccc4c3)on2)cs1	inconclusive [inhibitor, single point]	–
Cc1cccc(-[n+]2c(C)cc(C)c3c(=O)[nH]c(=O)[nH]c32)c1	inconclusive [inhibitor, partial curve]	–

Structure (SMILES)	Potency	activity, negative = inhibition
COc1ccc(-c2cccc(C(=O)NCC(=O)O)c2)cc1	inconclusive [inhibitor, single point]	–
O=S(=O)(c1ccc(-c2csc(-c3cccnc3)n2)cc1)N1CCCCC1	inconclusive [inhibitor, single point]	–
CC(C)(C)c1cc[n+](/C(C(=S)Nc2ccccc2F)=C(/[O-])c2ccc3c(c2)OCCO3)cc1	active: 14.1 µM	–
N#Cc1sc2nc(C3CC3)cc(-c3ccc(Cl)cc3)c2c1N	inconclusive [inhibitor, single point]	–
O=C(O)COc1ccc(C(=O)c2ccccc2)cc1	–	inactive: 1.1%
COc1ccccc1-n1c(SCC(=O)Nc2ccccc2F)nc2[nH]ncc2c1=O	inconclusive [inhibitor, single point]	–
CC(C)(C)c1ccc(-c2nnc3sc(-c4ccncc4)nn23)cc1	active: 12.6 µM	–
Cc1ccc(/C=C/C(=O)NCc2ccc(S(N)(=O)=O)cc2)o1	active: 1.78 µM	–
Cc1nc([N+](=O)[O-])c(C(=O)OCc2ccccc2C#N)n1C	–	inactive: 3.54%
C=CCOC(=O)C1=C(C)NC(SCC)=C(C#N)C1c1ccc(Cl)cc1 (configuration not stated)	–	inactive: -11.8%
COc1ccc2cc(C(c3nnnn3C(C)(C)C)N3CCc4ccccc4C3)c(=O)[nH]c2c1 (configuration not stated)	inconclusive [inhibitor, partial curve]	–
CC(C)COn1c(=S)[nH]c2ccccc2c1=O	inconclusive [inhibitor, single point]	–
O=C(Cc1ccc(Br)cc1)OCC(=O)N1CCc2ccccc2C1	–	inactive: 3.72%
CCOC(=O)C1CCCN(c2c(N3CCN(C4CCCCC4)CC3)c(=O)c2=O)C1 (configuration not stated)	inconclusive [inhibitor, single point]	–
COc1cc2[nH]c(=S)nc(NCCC(C)C)c2cc1OC	inconclusive [inhibitor, partial curve]	–
CCn1c(COc2cccc3cccnc23)nnc1SC(F)F	–	inactive: -6.91%
N#Cc1ccc(COC(=O)CSc2nnc(C3CCCCC3)n2N)cc1	inconclusive [inhibitor, single point]	–
CN(CC(=O)N1CC(=O)N(CCc2ccccc2)C(=O)C1)S(=O)(=O)c1cccc2nsnc12	inconclusive [inhibitor, single point]	–
CCC(C)(C)n1nnnc1CN1CCN(c2nc3ccc(C)cc3cc2C#N)CC1	inconclusive [inhibitor, partial curve]	–
O=C(/C=C/c1ccccc1[N+](=O)[O-])c1ccccc1Br	inconclusive [inhibitor, partial curve]	–
CC(C)(c1ccccc1)c1ccc(OCCn2cnc3ccccc3c2=O)cc1	–	inactive: -6.49%
O=CN/C=C/c1cc(O)ccc1O	inconclusive [inhibitor, partial curve]	–
O=C(NCCCN1CCCC1)c1ccc(Cn2c(=S)[nH]c3ccc(Br)cc3c2=O)cc1	active: 22.4 µM	–
CC1SC(c2ccc(Cl)cc2)NC1=O (configuration not stated)	inconclusive [inhibitor, single point]	–

Structure (SMILES)	Potency	activity, negative = inhibition
CCCC(C)NC(=O)c1cccc(Oc2ccccc2)c1 (configuration not stated)	inconclusive [inhibitor, single point]	–
Cn1c(=O)oc2cc(S(=O)(=O)Nc3cccc(C(=O)O)c3)ccc21	–	inactive: 14.3%
COC(=O)c1sc(NC(=O)COc2c(C)cccc2C)nc1C	–	inactive: -12.9%
CC(C)(C)OC(=O)N/N=C/c1c[nH]c2ccccc12	–	inactive: 7.57%
CC(C)Sc1ccc([N+](=O)[O-])cc1C(=O)Nc1ccncc1	inconclusive [inhibitor, partial curve]	–
Cc1cc(C(=O)Nc2sc3c(c2C#N)CCC(C(C)(C)C)C3)no1 (configuration not stated)	inconclusive [inhibitor, partial curve]	–
COc1ccc2cnn(-c3ccccc3C)c(=O)c2c1OC	inconclusive [inhibitor, single point]	–
CS(=O)(=O)Nc1cccc(-c2cncnc2-n2ccnc2)c1	inconclusive [inhibitor, single point]	–
CCOC(=O)c1c(-c2cccs2)csc1NC(=O)CN1CC(C)OC(C)C1 (configuration not stated)	inconclusive [inhibitor, single point]	–
CCn1c(COc2ccc3c(c2)OCO3)nnc1SCC(=O)c1ccccc1	inconclusive [inhibitor, single point]	–
O=C(NCN1C(=O)C2C3C=CC(C3)C2C1=O)Nc1nccs1 (configuration not stated)	inconclusive [inhibitor, single point]	–
CCOC(=O)N1CCN(Cc2ccccn2)CC1	inconclusive [inhibitor, single point]	–
COc1ccc(OC)c2c1sc(=NC(=O)C(C)C)n2C	inconclusive [inhibitor, single point]	–
COc1ccccc1-c1cc(C(=O)N2CCN(c3ccccc3OC)CC2)no1	inconclusive [inhibitor, single point]	–
Cc1noc(C)c1S(=O)(=O)N1CCCC(C(=O)N2CCc3ccccc3C2)C1 (configuration not stated)	inconclusive [inhibitor, partial curve]	–
CC(=O)NC(Cc1ccc(F)c(F)c1)C(=O)NC1CCN(C(=O)c2ccc(C)cc2)CC1 (configuration not stated)	inconclusive [inhibitor, partial curve]	–
O=c1[nH]c2cc(Cl)c([N+](=O)[O-])nc2[nH]1	–	inactive: 4.2%
c1ccc(CNc2nc(-c3cccs3)nc3ccccc23)cc1	inconclusive [inhibitor, single point]	–
COc1ccccc1-c1cc(-c2ccc(C)cc2)nc(SCc2nnc(-c3ccccc3)o2)c1C#N	inconclusive [inhibitor, partial curve]	–
O=C(O)C1CC=CCC1C(=O)N1CCN(c2nc(-c3ccccc3Cl)c3cc(Br)ccc3n2)CC1 (configuration not stated)	inconclusive [inhibitor, single point]	–
Cc1nc(-c2cccc(NS(C)(=O)=O)c2)cs1	–	inactive: 4.28%
Clc1ccc(Cn2c(/C=C/c3ccco3)nc3ccccc32)cc1	inconclusive [inhibitor, partial curve]	–
CC(/C=N/NC(=O)c1cccs1)=C\c1ccco1	active: 7.94 µM	–
COCc1ccc([C@@H]2C[C@H]3CN(Cc4cccc(Cl)c4)C(=O)[C@]34CCCN24)o1	–	inactive: 1.89%
